87 compounds from PMC4336329 (PLoS ONE, 2015) can be followed below.

The campaign covered roughly 310,000 compounds. About 2,200 (0.71%) showed an effect of 50% or more. Effects have a minus sign here. This is one part of the list.

The test deals with human ether-à-go-go-related gene (hERG) potassium channel (human, UniProt Q12809). The test can be described thus: primary screen, population patch clamp on CHO cells stably expressing hERG.
human ether-à-go-go-related gene (hERG) potassium channel, sequence (Q12809 whole entry, looked up): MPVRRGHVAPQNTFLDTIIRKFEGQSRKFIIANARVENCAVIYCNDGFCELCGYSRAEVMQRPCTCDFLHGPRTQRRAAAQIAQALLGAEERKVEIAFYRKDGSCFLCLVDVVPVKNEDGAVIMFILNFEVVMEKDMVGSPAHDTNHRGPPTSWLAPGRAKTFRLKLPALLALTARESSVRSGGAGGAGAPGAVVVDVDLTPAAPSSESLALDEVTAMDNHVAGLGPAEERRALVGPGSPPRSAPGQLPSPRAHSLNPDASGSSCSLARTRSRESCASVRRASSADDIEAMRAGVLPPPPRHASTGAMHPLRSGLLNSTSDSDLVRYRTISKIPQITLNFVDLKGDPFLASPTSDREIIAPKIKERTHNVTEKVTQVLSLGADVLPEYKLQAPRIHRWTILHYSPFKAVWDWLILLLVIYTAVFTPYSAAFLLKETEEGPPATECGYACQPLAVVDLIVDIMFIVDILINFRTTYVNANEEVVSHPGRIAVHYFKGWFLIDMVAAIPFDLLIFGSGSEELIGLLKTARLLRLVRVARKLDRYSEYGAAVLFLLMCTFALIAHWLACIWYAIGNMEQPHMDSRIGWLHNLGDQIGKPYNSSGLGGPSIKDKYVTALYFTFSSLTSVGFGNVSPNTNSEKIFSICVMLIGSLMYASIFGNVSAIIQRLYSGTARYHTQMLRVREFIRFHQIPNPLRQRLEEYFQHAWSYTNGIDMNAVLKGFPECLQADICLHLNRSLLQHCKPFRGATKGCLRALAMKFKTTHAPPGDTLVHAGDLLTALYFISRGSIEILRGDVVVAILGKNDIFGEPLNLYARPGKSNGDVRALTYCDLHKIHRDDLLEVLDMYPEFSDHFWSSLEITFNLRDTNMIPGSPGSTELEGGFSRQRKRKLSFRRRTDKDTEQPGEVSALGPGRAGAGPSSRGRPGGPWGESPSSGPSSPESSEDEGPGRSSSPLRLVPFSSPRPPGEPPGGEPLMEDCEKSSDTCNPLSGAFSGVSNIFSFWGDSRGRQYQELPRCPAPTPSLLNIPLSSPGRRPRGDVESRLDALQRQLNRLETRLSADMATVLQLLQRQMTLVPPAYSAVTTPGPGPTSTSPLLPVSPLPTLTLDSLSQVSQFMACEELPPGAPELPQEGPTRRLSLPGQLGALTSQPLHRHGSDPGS
For `Cc1csc(N(C(=O)c2ccc(S(=O)(=O)N(C)C)cc2)c2ccccc2)n1`, the “hERG current change (%, negative = inhibition) at 1uM” value worked out at 9.95%.
As to `CCCCn1c(O)c(N=Nc2ccccn2)c2ccccc21`, the “hERG current change (%, negative = inhibition) at 1uM” value worked out at 12.5%.
`O=C(NCc1ccoc1)c1ccc(NC(=O)c2ccccc2Cl)cc1`: the “hERG current change (%, negative = inhibition) at 1uM” value came to 10.4%.
The value for `Cc1ccc(C(=O)N(Cc2nnc(-c3ccc(Cl)cc3)o2)C2CC2)o1` was -3.42%; that for `Cc1ccc(CSC2=NCCN2C(=O)C(C)Oc2ccccc2)cc1` (stereo not drawn) was 7.59%; that for `O=C(/C=N/O)Nc1ccccc1C(=O)O` was -13.8%.
Next, `CC1CCCN(C(=O)COC(=O)c2n[nH]c3ccccc23)C1` (stereo not drawn): 0.277%; `N#Cc1c(C(F)(F)F)cc(-c2ccc(Cl)cc2)nc1SCC(=O)O`: 4.99%; `O=C(CC(C(=O)O)c1c[nH]c2ccccc12)c1ccccc1` (stereo not drawn): 9.56%.
Next, `Cc1cc(NC(=O)C2C3C(=O)N(CC4CCCO4)C(C(=O)NC(C)(C)C)C34C=CC2(C)O4)no1` (stereo not drawn): 11.2%; `CCc1cccc(C)c1NC(=O)COC(=O)c1c2c(nc3ccccc13)/C(=C\c1cccs1)CCC2`: 13.9%; `CCc1cc(=O)oc2c(CNC(Cc3ccccc3)C(=O)O)c(O)ccc12` (stereo not drawn): 18.9%.
Turning to `O=C(CN1CCN(c2ccccc2)CC1)Nc1c(C(=O)C2CC2)oc2ccccc12`, the “hERG current change (%, negative = inhibition) at 1uM” value is 8.52%.
The value for `O=C(OCc1nc2ccsc2c(=O)[nH]1)c1ccc(Cl)s1` was 4.2%.
Next, `O=C(CCn1c(=O)oc2ccccc21)N1CCc2ccccc21`: 15.9%; `Cc1nnsc1C(=O)NC(=O)Nc1ccc(F)c(Cl)c1`: 11%; `CN1/C(=C\C=O)C(C)(C)c2ccccc21`: 3.65%.
The value for `CC(c1ccco1)N(C(=O)CSc1ccc(Br)cc1)c1ccccn1` (stereo not drawn) was 14.9%.
Turning to `Cc1ccc(C(O)CN2C3=NCCN3c3ccccc32)cc1.Cl` (stereo not drawn), the “hERG current change (%, negative = inhibition) at 1uM” value is -40.9%.
Next, `COc1ccc(C(=O)C2CCCN(Cc3cccn3-c3ccccn3)C2)c(C)c1` (stereo not drawn): -84.8%.
Next, `O=C(CSc1nc2[nH]ncc2c(=O)[nH]1)Nc1ccc(F)cc1`: 13.3%.
Next, `CCn1c(=O)c2cc(C(=O)Nc3cccc(C(C)=O)c3)sc2c2ccccc21`: 9.6%; `Cc1ccc2nc(-c3cccc(-c4cccc(Cl)c4)c3)c(NCc3ccccc3)n2c1.O=C(O)C(F)(F)F`: 17.9%; `CN(C)CC(C)(C)CNS(=O)(=O)c1ccc(OC(F)(F)F)cc1.Cl`: 8.65%.
Turning to `O=C(COC(=O)c1ccco1)NCC1CCCO1` (stereo not drawn), the “hERG current change (%, negative = inhibition) at 1uM” value is given as -0.29%.
The value for `C/C(=N\NC(=O)Cc1ccccc1)c1ccc(Br)s1` was 15.5%; that for `CCCCN(C(=O)CSc1cc(C)c2ccc(OC)cc2n1)c1c(N)n(Cc2ccccc2)c(=O)[nH]c1=O` was 10.7%.
In the case of `CCOc1ccccc1N(C)C(=O)c1nn(-c2ccc(OC)cc2OC)c(=O)c2ccccc12`, the “hERG current change (%, negative = inhibition) at 1uM” value amounted to 4.9%.
For `CCOC(=O)CNS(=O)(=O)c1c(C)noc1C`, the “hERG current change (%, negative = inhibition) at 1uM” value was 3.59%.
The value for `Cc1ccc(NC(=S)NC2CCCCC2)cc1S(=O)(=O)N(C)C` was 2.18%; that for `CNC(=S)Nc1cccc(C(=O)O)c1` was 21.9%.
The value for `CC(=O)N1CC(=O)N(CC(=O)Nc2ccc(Br)cc2)C1=S` was 11.9%.
The value for `O=S(=O)(Nc1ccc(-c2ccc3nncn3n2)cc1)c1ccccc1F` was 13.3%.
Turning to `N#CC1(NC(=O)COC(=O)C23CC4CC(CC(O)(C4)C2)C3)CCCCC1`, the “hERG current change (%, negative = inhibition) at 1uM” value turned out to be 6.23%.
The value for `CN(C)CCN(Cc1ccccc1)C(=O)[C@H](Cc1ccccc1)N1C(=O)c2ccccc2C1=O` was 0.101%; that for `Brc1ccccc1OCCN1CCCC1` was 10%.
For the compound `CCN(CC)S(=O)(=O)c1ccc(NC(=O)C2COc3ccccc3O2)cc1` (stereo not drawn), the “hERG current change (%, negative = inhibition) at 1uM” value is given as -3.48%.
The value for `CS(=O)(=O)c1ccc(Cl)c(NC(=O)CSc2nnc(-c3cccs3)n2N)c1` was 16.7%; that for `COc1cc(C(=O)NC2CC(C)(C)Cc3c2cnn3-c2ccccc2)cc(OC)c1OC` (stereo not drawn) was 6.06%; that for `Cc1ccc(S(=O)(=O)N(C)c2ccc(OCC(=O)Nc3nc(-c4ccccc4)cs3)cc2)cc1` was 14.3%.
The value for `Oc1ccc(-n2cccc2/C=N/n2cnnc2)cc1` was 13.8%.
The value for `Cc1cccc2c1-c1sc(C(=O)Nc3nccs3)cc1CO2` was 12.5%; that for `Cc1cc(C)nc(SCCC(=O)Nc2ccccc2C)n1` was 20.5%.
As to `CC(=O)Nc1ccc(NC(=O)COc2ccc(S(=O)(=O)NC(C)c3ccccc3)cc2)cc1` (stereo not drawn), the “hERG current change (%, negative = inhibition) at 1uM” value stood at 17.5%.
Next, `CCc1ccccc1Nc1nc2ccccc2n1C`: 11.3%.
The value for `Cc1cc(NC(=O)CSc2nc3cc(Cl)ccc3c(=O)n2Cc2ccco2)no1` was 23.3%; that for `CNc1cc(CSC)nc(SCc2ccc(Cl)cc2Cl)n1` was 9.71%; that for `CCOC(=O)[C@@H]1[C@H]2COc3ccccc3[C@@H]2N2C(=O)N(c3ccc(F)cc3)C(=O)[C@@]12C` was 14%.
Consider `Cc1ccc2c(CC(=O)NCc3ccc4c(c3)OCO4)coc2c1`, for which the “hERG current change (%, negative = inhibition) at 1uM” value was 10.3%.
Take `CCN(CC)C(=O)CSc1nnc([C@@H](N)Cc2ccccc2)o1.Cl`: the “hERG current change (%, negative = inhibition) at 1uM” value amounted to 4.8%.
The value for `O=C(c1ccco1)N1CCN(C(=O)c2cccs2)CC1` was 7.29%.
Next, `CCn1c(-c2ccc3ncccc3c2)n[nH]c1=S`: 1.67%.
Regarding `Clc1ccc(Cn2ncc3c(NCCN4CCOCC4)ncnc32)cc1`, the “hERG current change (%, negative = inhibition) at 1uM” value was found to be 2.37%.
Next, `CC(C)Sc1ccc(C(=O)Nc2ccc(F)cc2F)cn1`: 14.8%; `Cc1cc(C)nc(SCC(=O)Nc2ncc3c(n2)CC(C)(C)CC3=O)n1`: 0.417%; `C=CCNc1oc(COc2ccc(C)cc2)nc1C#N`: 6.32%.
The value for `COCCCn1c(=N)c(C(=O)NCC2CCCO2)cc2c(=O)n3cccc(C)c3nc21` (stereo not drawn) was -74.8%; that for `Cc1ccccc1-n1c(=O)cc(N2CC(C)OC(C)C2)[nH]c1=O` (stereo not drawn) was -8.03%; that for `CC(=O)N1CCN=C1SCc1ccc(F)cc1` was 9.72%.
As for `CCOC(=O)C1CCCN(C(=O)CCn2nc(-c3ccccc3)ccc2=O)C1` (stereo not drawn), the “hERG current change (%, negative = inhibition) at 1uM” value is -0.738%.
Consider `CCC1SC2=NC(C)=C(C(=O)OCCOC)C(/C=C/c3ccccc3OC)N2C1=O` (stereo not drawn), for which the “hERG current change (%, negative = inhibition) at 1uM” value is 15.9%.
Turning to `O=[N+]([O-])c1ccc(S(=O)(=O)NCC(c2cccnc2)N2CCc3ccccc32)cc1` (stereo not drawn), the “hERG current change (%, negative = inhibition) at 1uM” value was -4.49%.
`C1CC2CN(c3nc4nonc4nc3N3CCSCC3)CCN2C1` (stereo not drawn): the “hERG current change (%, negative = inhibition) at 1uM” value amounted to 13.4%.
For `CCc1cc(C(=O)N2CCN(C(=O)c3ccco3)CC2)sc1C`, the “hERG current change (%, negative = inhibition) at 1uM” value is recorded as 15.3%.
Turning to `O=C(O)c1ccc(Cl)c(S(=O)(=O)Nc2ccc3cn[nH]c3c2)c1`, the “hERG current change (%, negative = inhibition) at 1uM” value is -8.18%.
Next, `C/C(=N\NC(=O)c1ccc(CN(C)S(=O)(=O)c2ccc(C)cc2)cc1)c1ccc(OC(F)F)cc1`: -2.71%; `Cc1cc(NC(=O)CSc2ncnc3sc(C)c(C)c23)no1`: 11.7%.
The value for `Cc1ccc(N2CC(C(=O)N3CCC(C(=O)Nc4nncs4)CC3)CC2=O)cc1` (stereo not drawn) was 14.9%; that for `CC(C)CCn1c(=O)c2sccc2n2c(CCCC(=O)N3CCC(N4CCCCC4)CC3)nnc12` was 13.8%.
The value for `CCOC(=O)C1=C(CC)Nc2ccccc2N=C1N` was 2.47%; that for `C=CCn1c(SCc2nc3ccccc3[nH]2)nnc1-c1ccc(OC)cc1` was 1.4%.
Consider `C=CCNC(=O)c1ccc(-c2nc(-c3ccc(Cl)cc3Cl)cs2)cc1`, for which the “hERG current change (%, negative = inhibition) at 1uM” value is reported as -3.24%.
Next, `COc1ccc(NS(=O)(=O)c2cc(C(=O)N3CCN(C/C=C/c4ccccc4)CC3)ccc2C)cc1`: -8%.
Regarding `O=C(Oc1ccccc1N1CCOCC1)c1sccc1Br`, the “hERG current change (%, negative = inhibition) at 1uM” value is 9.14%.
Regarding `O=C(O)c1cccc(NC(=O)c2cn(-c3ccccc3)nc2-c2cccc(Br)c2)c1`, the “hERG current change (%, negative = inhibition) at 1uM” value was 12.3%.
The value for `CCN(CC(=O)N1CCN(Cc2ccccc2)CC1)S(=O)(=O)c1ccc(C)cc1` was -3.83%; that for `COc1cc(C(=O)NCC(c2ccccc2)N(C)C)ccc1OCc1c(C)noc1C` (stereo not drawn) was 3.95%; that for `CCC(C)(C)NC(=O)CN(Cc1ccc(OC)cc1)C(=O)CCC(=O)Nc1nccs1` was 2.96%.
Next, `CN(C)/C=C/C(=O)c1ccc(-c2ccc(Cl)cc2Cl)o1`: 3.86%; `Cc1[nH]c2ccc(C(=O)NCCCN3CCN(C)CC3)cc2c1C`: 15.6%.
The value for `CCCCOc1ccc(C(=O)NCC(=O)NCC(c2ccc(F)cc2)N2CCOCC2)cc1` (stereo not drawn) was 9.34%.
On to `CCOC(=O)C1(CC)NC(c2ccc(N(C)C)cc2)C2C(=O)N(C)C(=O)C21` (stereo not drawn), for which the “hERG current change (%, negative = inhibition) at 1uM” value is recorded as 4.32%.
The value for `CCOc1ccc2oc(C(=O)Nc3ccc4c(c3)OCO4)c(C)c2c1` was 12.1%.
The value for `CCOc1ccc(S(=O)(=O)N2CCNC(=O)C2)cc1` was 12.3%.
Next, `Cc1oc2c(C)c3oc(=O)c(CCC(=O)NCCCCCC(=O)O)c(C)c3cc2c1C`: 25.2%.
As to `Cc1ccc2nc(N(CCCN(C)C)C(=O)c3ccc4ncsc4c3)sc2c1`, the “hERG current change (%, negative = inhibition) at 1uM” value is recorded as -8.93%.
The value for `Cc1ccc(-n2c3c(c(=O)[nH]c2=O)C(NS(=O)(=O)c2ccc(C)cc2)(C(F)(F)F)C(=O)N3)cc1` (stereo not drawn) was 7.64%.
